58 compounds from the supplement of paper PMC9446081 can be followed below.

Structures are written as SMILES. About 220 (0.56%) of roughly 39,000 compounds showed activity. This is one part of the list.
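Also: static incubation at 37 °C against the wild-type strain, values averaged over two biological replicates.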

This test concerns Escherichia coli K-12 BW25113. Put plainly: relative growth (OD600 normalised to plate interquartile mean) (fraction); higher = less growth inhibition, active = 0.2 or less. The settings on record: 50 µM; LB; incubation time: overnight (16-24 h).
Turning to `Cn1[nH]c(=O)cc1C(F)(F)F`, the relative growth is inactive: 1. To `N[C@@H](Cc1ccc(O)cc1)C(=O)O` belongs inactive: 0.973. With `Cc1noc(C)c1S(=O)(=O)Nc1ccc2c(c1)CC(=O)N([C@H](C)CO)C[C@H](C)[C@H](CN(C)C(=O)NC1CCCCC1)O2` the figure was inactive: 0.995; with `CC(C)(C)C(=O)Nc1ccccc1F`, inactive: 1.

With `COCCNC(=O)C[C@@H]1CC[C@H](NS(=O)(=O)c2ccc(C)cc2)[C@H](CO)O1`, the relative growth was inactive: 1.04. With `C[C@@H]1CN([C@H](C)CO)C(=O)c2cc(NC(=O)Nc3ccc(F)cc3)ccc2O[C@@H](C)CCCCO[C@H]1CN(C)C(=O)c1ccccc1` the figure was inactive: 0.989. With `O=C(C[C@H]1C[C@H]2c3cc(NS(=O)(=O)c4ccc(F)cc4)ccc3O[C@H]2[C@@H](CO)O1)NCCc1ccccc1` the figure was inactive: 1.03; with `COc1cc(C(=O)NCCCN2CCCN(CCCNC(=O)c3cc(OC)c(OC)c(OC)c3)CC2)cc(OC)c1OC`, inactive: 1.01. With `COc1ccc(S(=O)(=O)Nc2ccc3c(c2)C(=O)N([C@@H](C)CO)C[C@@H](C)[C@H](CN(C)Cc2ccc(Cl)c(Cl)c2)OCCCC[C@@H](C)O3)cc1`, the relative growth is inactive: 1. To `CCCN(C)C[C@@H]1OCCCC[C@@H](C)Oc2ccc(NS(C)(=O)=O)cc2C(=O)N([C@@H](C)CO)C[C@@H]1C` belongs inactive: 0.972. With `COc1ccc2c3c(n(c2c1)C)[C@@H](CO)N(C[C@]13CN(CC2CCOCC2)C1)C(=O)Cc1ccccn1` the figure was inactive: 0.997; with `CN(C)CC(=O)N1[C@@H]2Cn3c(ccc(-c4cccnc4)c3=O)[C@H]1[C@@H](C(=O)NC1CCC1)[C@@H]2CO`, inactive: 0.985. To `C[C@@H]1CN([C@H](C)CO)C(=O)c2cccc(NS(=O)(=O)c3cn(C)cn3)c2O[C@H]1CN(C)Cc1ccc(C(=O)Nc2ccccc2N)cc1` belongs inactive: 0.994. On to `C[C@@H]1CN([C@H](C)CO)C(=O)c2cccc(NS(=O)(=O)c3cccs3)c2O[C@H]1CN(C)C(=O)Nc1cccc2ccccc12`, for which the relative growth was inactive: 0.987. `CC/1=C(CCC(=O)O)/C/2=C/c3[nH]c(c(c3CCC(=O)O)C)/C=C/3\N=C(/C=C/4\N=C(\C=C1/N2)C(=C4C)C=C)C(=C3C)C=C`: the relative growth is inactive: 0.819. With `COc1ccc(S(=O)(=O)N(C)C[C@@H]2OCCCC[C@H](C)Oc3ccc(NS(=O)(=O)c4cn(C)cn4)cc3C(=O)N([C@@H](C)CO)C[C@H]2C)cc1` the figure was inactive: 0.966; with `C[C@@H]1CN([C@H](C)CO)C(=O)Cc2cc(NS(=O)(=O)c3cn(C)cn3)ccc2O[C@@H]1CN(C)C(=O)Nc1ccccc1`, inactive: 0.99; with `Cc1ccc(S(=O)(=O)N(C)C[C@@H]2Oc3c(NS(=O)(=O)c4cccs4)cccc3C(=O)N([C@H](C)CO)C[C@@H]2C)cc1`, inactive: 0.989. With `C[C@H]1CN([C@@H](C)CO)C(=O)c2cc(NS(=O)(=O)c3ccc(F)cc3)ccc2O[C@H]1CN(C)Cc1ccncc1` the figure was inactive: 0.992; with `C[C@@H]1CCCCO[C@H](CN(C)S(=O)(=O)c2ccc(F)cc2)[C@@H](C)CN([C@@H](C)CO)C(=O)c2cc(NC(=O)c3ccccc3)ccc2O1`, inactive: 1.04. To `C[C@@H]1CCCCO[C@@H](CN(C)S(=O)(=O)c2ccc(Cl)cc2)[C@@H](C)CN([C@H](C)CO)C(=O)c2cc(NS(=O)(=O)c3ccccc3)ccc2O1` belongs inactive: 0.998; to `C[C@@H]1CN([C@@H](C)CO)C(=O)CCCn2nncc2CO[C@H]1CN(C)S(=O)(=O)c1cn(C)cn1`, inactive: 1.01. As to `C[C@@H]1CN([C@H](C)CO)C(=O)Cc2cc(NC(=O)Nc3ccc4c(c3)OCO4)ccc2O[C@H]1CN(C)S(=O)(=O)c1cn(C)cn1`, the relative growth was inactive: 0.982. To `COc1ccc(NC(=O)Nc2ccc3c(c2)C(=O)N([C@@H](C)CO)C[C@@H](C)[C@@H](CN(C)C(=O)Nc2ccc(OC)cc2)OCCCC[C@@H](C)O3)cc1` belongs inactive: 1.02; to `NCc1nnnn1-c1ccccc1`, inactive: 0.977; to `C[C@H]1CCCCO[C@@H](CN(C)C(=O)Nc2ccccc2)[C@@H](C)CN([C@@H](C)CO)C(=O)c2cc(NC(=O)Nc3cccc4ccccc34)ccc2O1`, inactive: 1.02. To `C[C@H]1CN([C@@H](C)CO)C(=O)c2cc(NC(=O)Nc3ccc(C(F)(F)F)cc3)ccc2O[C@H]1CN(C)Cc1ccc(C(F)(F)F)cc1` belongs inactive: 1.01; to `C[C@H](CO)N1C[C@H](C)[C@@H](CN(C)S(C)(=O)=O)Oc2ccc(NS(=O)(=O)c3ccc(F)cc3)cc2CC1=O`, inactive: 0.981. `Nc1nonc1N1CCCCC1`: the relative growth was inactive: 1.05. To `C[C@H]1CN([C@@H](C)CO)C(=O)c2cc(NC(=O)Cc3cn(C)c4ccccc34)ccc2O[C@@H]1CN(C)S(C)(=O)=O` belongs inactive: 0.998. With `COc1ccc(S(=O)(=O)N(C)C[C@@H]2Oc3ccc(NS(=O)(=O)c4ccc(C)cc4)cc3CC(=O)N([C@H](C)CO)C[C@H]2C)cc1` the figure was inactive: 0.913; with `Cc1noc(C)c1NC(=O)Nc1ccc2c(c1)C(=O)N([C@H](C)CO)C[C@@H](C)[C@H](CN(C)Cc1ccc(-c3ccccc3)cc1)O2`, inactive: 0.914; with `C[C@H](CO)N1C[C@H](C)[C@@H](CN(C)S(=O)(=O)c2cccs2)Oc2ccc(NC(=O)CCCN(C)C)cc2CC1=O`, inactive: 1.01.

Take `C[C@@H]1CN([C@@H](C)CO)C(=O)c2cc(NC(=O)Nc3ccc(C(F)(F)F)cc3)ccc2O[C@@H](C)CCCCO[C@H]1CN(C)Cc1ccc(C(=O)O)cc1`: the relative growth was inactive: 0.947. On to `C=C(C)C1CC=C(C(=O)O)CC1` (stereo not drawn), for which the relative growth was inactive: 0.773.

On to `C[C@@H]1CN([C@@H](C)CO)C(=O)c2cccc(NS(=O)(=O)c3cccs3)c2O[C@H]1CN(C)S(=O)(=O)c1cn(C)cn1`, for which the relative growth is inactive: 1.03. To `COC(=O)C1=C(C)NC(C)=C(C(=O)OCCCN2CCC(c3ccccc3)(c3ccccc3)CC2)[C@@H]1c1cccc([N+](=O)[O-])c1` belongs inactive: 0.972. Turning to `C[C@H](CO)N1C[C@H](C)[C@H](CN(C)S(=O)(=O)c2ccccc2)OCCCC[C@H](C)Oc2ccc(NS(=O)(=O)c3ccc(Cl)cc3)cc2C1=O`, the relative growth is inactive: 0.975.

For `CNC[C@@H]1OCCCC[C@@H](C)Oc2ccc(NC(=O)CCCN(C)C)cc2C(=O)N([C@@H](C)CO)C[C@H]1C`, the relative growth was inactive: 0.963.

Consider `C[C@@H]1CN([C@H](C)CO)C(=O)c2cc(NC(=O)Nc3cccc4ccccc34)ccc2O[C@H]1CN(C)S(=O)(=O)c1ccc(F)cc1`, for which the relative growth is inactive: 1.06. With `C[C@H]1CN([C@@H](C)CO)C(=O)Cc2cc(NS(=O)(=O)c3ccc(Cl)cc3)ccc2O[C@@H]1CN(C)S(=O)(=O)c1cn(C)cn1` the figure was inactive: 0.999; with `C[C@H](CO)N1C[C@H](C)[C@H](CN(C)C(=O)Nc2cccc3ccccc23)Oc2c(NC(=O)c3nc4ccccc4s3)cccc2C1=O`, inactive: 0.994. To `COc1cccc(-c2ccc3c(c2)O[C@@H](CN(C)C(=O)C2CCOCC2)[C@@H](C)CN([C@@H](C)CO)S3(=O)=O)c1` belongs inactive: 1. With `CS(=O)(=O)N1CCN(Cc2cc3nc(-c4cccc5n[nH]cc45)nc(N4CCOCC4)c3s2)CC1` the figure was inactive: 1.03; with `C[C@H](CO)N1C[C@H](C)[C@H](CN(C)S(=O)(=O)c2ccccc2F)Oc2cc(C#Cc3cccc(F)c3)ccc2S1(=O)=O`, inactive: 1.04. In the case of `C=CCN1C(=O)[C@@]2(O[C@@H](CCn3cc([C@H](O)c4ccccc4)nn3)[C@H]([Si](C)(C)c3ccc(OC)cc3)[C@H]2C)c2cc(N3CCOC3=O)ccc21`, the relative growth was inactive: 0.993. Regarding `C[C@@H]1CN([C@H](C)CO)C(=O)c2cc(NC(=O)Nc3ccccc3)ccc2O[C@@H](C)CCCCO[C@H]1CN(C)Cc1ccc(Cl)c(Cl)c1`, the relative growth was inactive: 1.02. With `C[C@@H]1CCCCO[C@H](CN(C)Cc2ccc(Cl)c(Cl)c2)[C@H](C)CN([C@@H](C)CO)C(=O)c2cc(NC(=O)C3CCCCC3)ccc2O1` the figure was inactive: 0.982; with `C[C@H](CO)N1C[C@H](C)[C@@H](CN(C)C(=O)C2CCCCC2)Oc2cc(C#CCN(C)C)ccc2S1(=O)=O`, inactive: 1. On to `COc1ccc(NC(=O)Nc2ccc3c(c2)C(=O)N([C@H](C)CO)C[C@H](C)[C@@H](CN(C)C(=O)Nc2c(C)noc2C)OCCCC[C@@H](C)O3)cc1`, for which the relative growth is inactive: 1.01. To `COc1ccc(CN(C)C[C@H]2Oc3ccc(NC(=O)CCCCCC(=O)Nc4ccccc4N)cc3CC(=O)N([C@@H](C)CO)C[C@H]2C)cc1` belongs inactive: 1; to `C[C@@H]1CCCCO[C@H](CN(C)Cc2ccc(C(F)(F)F)cc2)[C@H](C)CN([C@H](C)CO)C(=O)c2cc(NS(=O)(=O)c3ccc(Cl)cc3)ccc2O1`, inactive: 1.07; to `CC(C)NC(=O)N(C)C[C@H]1OCCCC[C@@H](C)Oc2ccc(NC(=O)C3CCCCC3)cc2C(=O)N([C@@H](C)CO)C[C@H]1C`, inactive: 0.936.

For `C[C@@H]1CCCCO[C@@H](CN(C)S(=O)(=O)c2ccccc2)[C@@H](C)CN([C@@H](C)CO)C(=O)c2cc(NC(=O)NC3CCCCC3)ccc2O1`, the relative growth was inactive: 0.995. To `C[C@@H]1CN([C@H](C)CO)C(=O)Cc2cc(NS(=O)(=O)c3cccs3)ccc2O[C@@H]1CN(C)Cc1ccncc1` belongs inactive: 0.975; to `NCCCCN`, inactive: 0.989; to `C[C@H]1CCCCO[C@H](CN(C)Cc2ccc(C(=O)O)cc2)[C@@H](C)CN([C@@H](C)CO)C(=O)c2cc(NC(=O)NC3CCCCC3)ccc2O1`, inactive: 1.02. To `Cc1noc(C)c1NC(=O)N(C)C[C@@H]1Oc2ccc(NC(=O)Cn3cnnn3)cc2CC(=O)N([C@H](C)CO)C[C@H]1C` belongs inactive: 0.861.
